Target: T1, OML4-MBP (rice, UniProt Q64M78 1-1001)
T1 construct: Expressed in E. coli; Order of the pieces follows the printed name
T1 sequence: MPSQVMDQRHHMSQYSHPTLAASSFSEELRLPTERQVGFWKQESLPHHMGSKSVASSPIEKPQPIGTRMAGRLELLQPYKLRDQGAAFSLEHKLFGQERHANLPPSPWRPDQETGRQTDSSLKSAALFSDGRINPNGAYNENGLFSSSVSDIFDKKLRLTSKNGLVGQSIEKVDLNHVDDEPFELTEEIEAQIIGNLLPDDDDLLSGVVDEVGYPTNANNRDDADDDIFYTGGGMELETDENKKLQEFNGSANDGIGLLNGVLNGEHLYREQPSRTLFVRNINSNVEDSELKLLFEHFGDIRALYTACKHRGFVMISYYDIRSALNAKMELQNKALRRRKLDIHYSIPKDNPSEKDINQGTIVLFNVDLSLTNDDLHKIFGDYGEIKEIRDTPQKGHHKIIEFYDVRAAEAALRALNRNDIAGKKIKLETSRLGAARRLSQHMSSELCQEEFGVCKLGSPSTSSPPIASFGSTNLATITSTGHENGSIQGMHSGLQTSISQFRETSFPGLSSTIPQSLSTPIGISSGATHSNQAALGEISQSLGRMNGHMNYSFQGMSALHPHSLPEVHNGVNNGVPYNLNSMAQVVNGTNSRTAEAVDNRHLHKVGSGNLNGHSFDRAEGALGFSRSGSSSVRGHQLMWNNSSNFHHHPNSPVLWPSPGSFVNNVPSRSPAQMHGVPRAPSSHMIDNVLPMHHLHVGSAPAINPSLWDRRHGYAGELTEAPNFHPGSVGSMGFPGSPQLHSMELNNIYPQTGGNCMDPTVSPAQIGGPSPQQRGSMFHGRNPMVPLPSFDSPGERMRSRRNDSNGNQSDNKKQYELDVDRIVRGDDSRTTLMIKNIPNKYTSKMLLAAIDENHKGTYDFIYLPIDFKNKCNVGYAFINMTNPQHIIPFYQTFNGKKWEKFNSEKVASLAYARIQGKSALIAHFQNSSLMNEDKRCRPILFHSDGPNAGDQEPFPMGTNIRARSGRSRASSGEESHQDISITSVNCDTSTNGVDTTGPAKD
Experiment: in vitro pull-down on MBP beads, immunoblot with anti-GST
Protocol: To investigate whether OML4 could directly interact with GSK2, we performed an in vitro pull-down assay (FIG. 5D). We expressed maltose binding protein (MBP)-fused OML4 (OML4-MBP) and GST tag-fused GSK2 (GSK2-GST) proteins in E. coli cells. […] The co-immunoprecipitation (Co-IP) analyses were used to examine the association of GSK2 and OML4 in N. benthamiana. We co-expressed GSK2-GFP and OML4-MYC in N. benthamiana leaves (FIG. 5E). Total proteins were isolated and incubated with MYC beads to immunoprecipitate OML4-MYC. The anti-MYC and anti-GFP antibodies were used to detect immunoprecipitated proteins, respectively.
Recombinant proteins (OML4-MBP and MBP) and the prey proteins (GSK2-GST and GST) were incubated in TGH buffer (50 mM HEPES, PH 7.5, 10% glycerol, 150 mM NaCl, Triton X-100, 1.5 mM MgCl₂, 1 mM EGTA, and protease inhibitor cocktail tablet) for 0.5 hr at 4° C. with 20 μl MBP-beads per tube. Centrifuge 500 rpm for 2 mins and discard supernatant to stop the reaction. Wash beads with ice-cold TGH buffer for 5 times and then add 50 μl SDS-loading buffer. Denatured the samples at 98° C. for 5 mins and finally subjected to the SDS-PAGE analysis. We used anti-MBP (Beyotime) and Anti-GST (Beyotime) to detect the input and the pull-down samples, respectively.

binding result: no binding
B1: GST (other)
chain: not shown
notes: Control prey protein of the pull-down assay; also called negative control (GST)

From patent US20230081195A1 (INSTITUTE OF GENETICS AND DEVELOPMENT BIOLOGY CHINESE …, published 2023)
